From ChEMBL document CHEMBL4888484, “Replenishing the malaria drug discovery pipeline: Screening and hit evaluation of the MMV Hit Generation Library 1 (HGL1) against asexual blood stage Plasmodium falciparum ,using a nano luciferase reporter read-out” (2022) come the findings set out here.

The campaign covered roughly 150,000 compounds. About 540 (0.36%) showed an effect of 50% or more. This is one part of the list.

The test relates to Plasmodium falciparum. Briefly: Primary screen in NF54 nanoGlo assay, in single point, at 2uM, 72h; a lower Z score goes with more inhibition. The class given is functional, Erythrocyte. Particulars: timepoint 72 hour.
In general, % Inhibition refers to the drop in the measured response relative to a control, in per cent. With `COC(=O)CN(C)C(=O)CCN(C)Cc1ccc(Cl)cc1`, the “% Inhibition” value is listed as -13% and the Z score stood at 1.64.
For `CCc1nnc2n1CCN(Cc1nccn1CC(F)(F)F)C2`, in that order: -4% and 0.64.
For `CN(C)[C@H]1CCN(C(=O)C2(N(C)CCc3ccccc3)Cc3ccccc3C2)C1`, in that order: -5% and 0.87.
For `Nc1nnc(COc2ccc3ccccc3c2)o1`, in that order: 18% and -2.24.
`CCOC[C@H]1CN(Cc2c(C)nn(-c3ccccc3)c2C)CCO1`: the “% Inhibition” value is 8% and the Z score is recorded as -1.08.
For `CC(C)c1ccccc1NC(=O)N(C)C`, in that order: -7% and 1.14.
For `CNC(=O)C1(C(=O)NC[C@H](c2ccccc2)C(C)C)CCC1`, in that order: -11% and 1.35.
For `CN1CCC(N(Cc2ccco2)C(=O)NCc2ccco2)CC1`, in that order: -3% and 0.4.
`O=C(c1ccncc1)N1C[C@@H]2OCC(=O)N(Cc3cccnc3)[C@@H]2C1`: the “% Inhibition” value is -9% and the Z score is 1.44.
For `CC(=O)N1CCCN(C(=O)CCCc2nc(C(C)(C)C)no2)CC1`, in that order: -13% and 1.37.
For `O=C(Nc1ccccc1)c1cccc(CN2CCCCCC2)c1`, in that order: -29% and 3.45.
For `CS(=O)(=O)c1ccc(CN2CC[C@H](c3nc4ncccc4[nH]3)C2)cc1`, in that order: -4% and 0.59.
As for `CN(Cc1ccsc1)C[C@](C)(O)c1ccc(S(C)(=O)=O)cc1`, the “% Inhibition” value is -7% and the Z score was found to be 0.92.
As for `Cc1cnc(C(=O)N[C@H]2c3ccccc3C[C@@H]2O)cc1C`, the “% Inhibition” value is recorded as 0% and the Z score was found to be 0.01.
For `CCCCOc1ccc(-c2cc3c4nnc(CCC(=O)N5CCCC5)n4ccn3n2)cc1`, in that order: -6% and 0.87.
On to `C[C@H](NC(=O)C1CCN(S(=O)(=O)c2ccc(N3CCCC3=O)cc2)CC1)C(=O)N1CCCC1`, for which the “% Inhibition” value is given as -15% and the Z score amounted to 1.74.
With `CC(C)(C)OC(=O)N1CC(CNC2(c3ncon3)CCC2)C1`, the “% Inhibition” value came to 9% and the Z score is -1.69.
For `O=C(NCCC1CCS(=O)(=O)CC1)c1cc(F)c[nH]1`, in that order: -2% and 0.39.
In the case of `COc1ccc(CNC(=O)c2cc(-c3ccc(OC)c(OC)c3)nc3n[nH]c(-c4ccc(Cl)cc4)c23)cc1`, the “% Inhibition” value is on record as -5% and the Z score is 0.81.
For `CCN(c1ccc(OC)cc1)S(=O)(=O)c1cccc(-c2nc(-c3ccc(C)cc3)no2)c1`, the “% Inhibition” value is listed as -15% and the Z score was 2.2.
For the compound `COc1cc(C#N)ccc1CN1CC[C@H]1c1ccc(Cl)cc1`, the “% Inhibition” value is listed as -8% and the Z score was 0.96.
For `CN1CCOC(C(NCc2ccccn2)c2ccc(Cl)cc2)C1` (stereo unspecified), in that order: 4% and -0.36.
In the case of `CC(C)c1cc(C(=O)N2CCCC[C@H]2c2nc(-c3ccccc3)c[nH]2)n(C)n1`, the “% Inhibition” value is -17% and the Z score is recorded as 2.09.
